Data from the supplement of paper PMC7826260.
The list shows a part of the results. Each Rep nickase domain was tested in vitro on the same pool of single strands (3 µM enzyme, 1 h, 37 °C); shown is the middle of each 90-letter strand. Numbers give uncut DNA relative to the enzyme-free pool, as log2; more negative means more cut, near 0 not cut, and no call is made. The scaling is to total reads; values above 0 arise when much of the pool is cut.

Tested on: T1, Rep nickase domain of tomato golden mosaic virus
T1 sequence (residues 1-124, tag not shown): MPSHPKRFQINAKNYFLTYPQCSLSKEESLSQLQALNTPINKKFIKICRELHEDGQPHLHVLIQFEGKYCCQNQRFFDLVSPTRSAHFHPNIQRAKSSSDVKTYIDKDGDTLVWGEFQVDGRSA
Test: uncleaved DNA left, log2 of reads against the no-enzyme library (log2 ratio); higher = less cleavage (more negative = more Rep cleavage of the k-mer); sequences stand for … in CTCGTCCG…ACCGGAGA
Method: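 A pool of 90-nt single-stranded DNAs with seven random bases just before the constant AC of the nick site (name = the seven bases) was cut by 3 µM recombinant His6-SUMO-tagged Rep nickase domain (300 nM DNA, 50 mM HEPES pH 8.0, 50 mM NaCl, 1 mM MnCl2, 1 h, 37 °C, three replicates). Uncut DNA was amplified and sequenced.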

Sequence	uncleaved DNA left (log2)
CTCTATA	0.0149
GTTGACC	0.019
GGCCTAC	0.0184
CCTTGGA	-0.00678
TACTTAC	-0.0793
GCGGCGG	0.0512
CCCTGGC	0.0192
GCTTACC	0.0486
TTATGAC	-0.04
CCAGATT	-0.234
TCTTTTC	-0.209
AGCGGAA	0.161
CGTTTAG	0.131
AATGGAC	0.0871
CGCCATC	-0.185
ATGATCT	0.0498
TAGAACT	-0.0074
AGCGTGA	0.101
GTAGGGA	0.127
TGGCTCT	-0.183

Sequence	uncleaved DNA left (log2)
CGGTCCT	-0.101
AGACAGC	-0.00528
AGCATTG	0.00363
CGGGTTT	-0.0501
TAGAATC	0.00137
TTAGCCA	-0.0501
AAACTAA	0.152
TTATTCG	-0.171
TACGTAT	0.0289
TTATGTT	-3.16
AAGTATT	-1.24
GGTTCTC	-0.147
ACCTTCT	-0.0475
TATACGG	0.234
TACGCCG	-0.0525
GAAATCG	-0.109
GGAGGGC	0.179
GCCCTCG	-0.0735
TCCTTCT	-0.167
GGTGTTA	0.167
